# From the supplement of paper PMC3334620
# Whole data set: some 33,000 sequences, median “E-score (-0.5 to 0.5)” near -0.017, cut for the highest 2% near 0.3. Some of the results follow.
# Molecular target: T1, Sut1 (UniProt P53032)
# T1 sequence: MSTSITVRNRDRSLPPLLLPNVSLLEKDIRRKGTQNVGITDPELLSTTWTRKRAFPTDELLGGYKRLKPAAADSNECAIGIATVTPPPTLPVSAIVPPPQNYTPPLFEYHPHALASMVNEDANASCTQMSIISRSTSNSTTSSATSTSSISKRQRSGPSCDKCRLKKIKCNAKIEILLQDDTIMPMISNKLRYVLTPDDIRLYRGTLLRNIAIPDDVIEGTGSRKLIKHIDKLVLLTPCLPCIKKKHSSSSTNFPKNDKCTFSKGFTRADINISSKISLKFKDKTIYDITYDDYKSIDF
# Experiment: PBM E-score (8-mer binding enrichment) (E-score (-0.5 to 0.5)); higher = stronger / more preferred TF binding; most listed sequences are background and not binding sites
# Conditions: protein concentration: 200 nM; construct: GST-full length
# Procedure, shortened: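 Yeast transcription factors, full-length or as DNA-binding domains, were expressed with a GST tag using PURExpress in vitro transcription/translation. At about 100-200 nM they were applied to universal all-10-mer Agilent arrays, double-stranded by primer extension on fresh or once-stripped slides. Fluorescent anti-GST detected bound protein, and masliner normalised the scans. E-scores for ungapped eight-base words, pooled with reverse complements, came from the Universal PBM Analysis Suite.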
row,Sequence,PBM E-score
1,GGGTTGCA,-0.0498
2,ATTATATC,0.262
3,CTCGAGTC,-0.144
4,CATGCACC,-0.116
5,GAGCCCAA,-0.0712
6,ATGGAGAC,-0.0343
7,ATCTCGTA,0.042
8,GCTAGCTA,-0.158
9,CGAGGTGC,0.0682
10,AACGGAGT,0.478
11,ACGTAAGC,-0.19
12,TACTAGAA,0.164
13,GGTTAGAA,-0.104
14,CAAGGGTC,-0.0764
15,GGCTCTAA,-0.0767
16,AGCAAATA,0.2
17,CAGCCATG,-0.265
18,CCCGCTTA,-0.182
19,GCAGCTCC,0.00727
20,AGGTCAAG,-0.0505
21,CGTAACGC,-0.0588
22,CGAAATAC,0.215
23,GTTGCGTA,0.0944
24,AAGCTATA,0.0434
25,GGTGAAAC,0.0555

row,Sequence,PBM E-score
1,AGTAAGAC,0.0151
2,ACATGACC,-0.173
3,GTACGAGA,0.0281
4,TCAGATCA,-0.105
5,CTTTTATC,0.26
6,GAAACTCC,0.345
7,CTTGTCCC,-0.0919
8,ATTTCGAA,0.313
9,CAGGCGAC,-0.165
10,AATGCTAA,0.0726
11,GGCGATTA,-0.0594
12,AGCAAAGG,0.0533
13,AGTGTGGG,0.0135
14,GGTTAAGA,0.0619
15,ACGCAGAG,-0.0944
16,GCCGTCGC,-0.177
17,CTATCTGA,-0.175
18,CAGGTCAC,-0.398
19,CGATTTCC,0.193
20,ACGCTTTA,-0.14
21,TAATCTGA,0.126
22,CCCACCGA,-0.0673
23,GGCAGATA,-0.119
24,GGACAGGA,-0.0585
25,ACGCTAAG,-0.159

row,Sequence,PBM E-score
1,ATCACGAT,-0.0864
2,GTAGTACA,-0.131
3,GTGTGAAA,0.122
4,ATCGAAGG,0.115
5,AGTAACTC,0.115
6,GTCCCACA,-0.153
7,ATGTGCTA,0.112
8,AACTTGAG,-0.0454
9,CGACCATC,-0.0758
10,CATCCACA,-0.0595
11,ACCCCAAT,-0.186
12,AATTCCGG,0.337
13,AGTCAGTC,-0.159
14,GAGCTAAC,0.14
15,ACTCAACC,0.0622
16,GCCGGCCA,0.102
17,CCCATCCA,-0.0982
18,CGATGCCG,0.0208
19,CGAGCGGC,0.0427
20,CAAAGCAA,0.053
21,GTGAGACA,-0.0481
22,ATCCTATC,0.0863
23,GCCAAACC,0.0193
24,AGTCCTTC,-0.18
25,ATAGGAAA,0.174

row,Sequence,PBM E-score
1,GCTCCTCA,-0.0893
2,ATAATTTC,0.242
3,AGTCAGTA,0.0721
4,TATACTCA,0.136
5,CCGAAGAA,0.233
6,ACGAACCC,-0.0389
7,AATCACGA,-0.13
8,CAACAGTC,0.0186
9,CGGTTTCC,0.0236
10,CTCGTATC,0.145
11,AGGTACAT,-0.13
12,CCCTAGGA,-0.136
13,TCGGACAA,0.367
14,ATGGTCCA,-0.2
15,GACATCGC,-0.0981
16,ATAAGGTG,0.0674
17,CGTGCATA,0.0332
18,TTAGATAA,0.0583
19,CCCCATCC,-0.17
20,CACAAAAC,0.156
21,GAATTATC,0.0676
22,CTGTCTGA,-0.082
23,ATGTCCGC,0.282
24,TCTGTCAA,0.0411
25,TGAGCAAA,0.0483

row,Sequence,PBM E-score
1,TCGATCAA,-0.00575
2,AGAACGCA,0.0182
3,AGTGCTAC,-0.187
4,CAATAACA,0.0715
5,CCAAGGAC,-0.156
6,CAAGCTGC,-0.0921
7,AGAATTGC,-0.0537
8,ACAGACAC,-0.109
9,GCTCATCA,0.0461
10,CCTACATC,0.118
11,GCCATCCC,-0.093
12,CGTGCTTA,0.015
13,ACTATTCT,0.0103
14,CCGGCGTC,0.0977
15,ACCGCATA,0.136
16,AGTTGACA,0.135
17,CAATATAC,0.144
18,CTCGCGTC,-0.0648
19,ACACCGAT,0.0445
20,GCGACTCA,-0.112
21,GAAAATTA,0.238
22,GGAACAAA,0.266
23,CAGGCTCG,-0.102
24,CTAACTAC,0.00799
25,GTCCCAAA,-0.0949

row,Sequence,PBM E-score
1,TCACGTGA,0.0117
2,GTAGGACA,-0.0253
3,CCGACGGA,0.225
4,CATTTGAC,0.078
5,ACGGCAAT,0.127
6,CTTGAGCA,-0.21
7,ACAACGGG,0.0387
8,GCTTACTA,0.0513
9,AGAATCAC,-0.0266
10,CCACGTCG,-0.0653
11,ACTCACCG,-0.0689
12,CCAGGCTA,-0.386
13,CGACTAGA,0.0341
14,CTCGTGCA,-0.071
15,CGGAATCC,0.094
16,CGCGATAC,-0.127
17,AATCCATA,0.108
18,CGTAGGAC,-0.151
19,CCTTTCTA,-0.00952
20,GACACAAA,0.0952
21,ACCAGGAC,-0.00934
22,ACAAGAAA,0.218
23,AGAATGAG,-0.00389
24,AGGCGAGA,-0.259
25,ACAGATCG,-0.0379

row,Sequence,PBM E-score
1,AAGCCTAG,-0.183
2,CTGCACGC,-0.343
3,ATCTGTTG,-0.0365
4,TGAGACCA,-0.207
5,CACGTTAA,-0.0328
6,GCGCTATA,-0.094
7,AGCTGCGG,-0.232
8,AGTCCCGG,0.1
9,CTTAACAA,0.145
10,GAAACCCA,0.11
11,AAAGCTCA,-0.0115
12,AGACAATC,0.09
13,ATGGGCAC,-0.0249
14,AGGATGAA,-0.126
15,GAGCGGGC,-0.286
16,ACAATGGG,0.117
17,GCGCTCAC,-0.107
18,CGTCTGTA,-0.0311
19,AGTATAAA,0.302
20,CCCGACAA,0.173
21,TACCGGAA,0.298
22,CTCGGTAC,-0.0712
23,CCCGCGTA,-0.112
24,CTAGGACC,-0.157
25,AGTAGAGA,-0.0294

row,Sequence,PBM E-score
1,AGTGGAGA,0.00138
2,CTCACGAC,-0.29
3,AAGGCTGG,-0.146
4,CCCAAAAG,-0.0557
5,ATAGGGGG,-0.303
6,ATAGTGGC,-0.189
7,TACGCGCA,0.0105
8,AATACTCA,0.189
9,ACGACAGT,0.0864
10,GTCCCAGA,-0.324
11,AGTCTGGC,-0.306
12,CGAACATC,0.139
13,CCTCAGAG,-0.247
14,CCCGTGCA,-0.167
15,AGGTGTGC,-0.224
16,ACATTATG,0.184
17,AGCCTTAG,-0.00896
18,GATTGAAA,0.303
19,CTAGTATC,-0.0607
20,ACATGTTA,0.193
21,CATAAGCA,0.00608
22,TAACACCA,0.0761
23,AACATACT,0.22
24,CGACGCTA,-0.089
25,CTATATGC,0.198

row,Sequence,PBM E-score
1,CCGATAAG,0.111
2,GATCTAGC,-0.0743
3,AGCCGAGG,-0.0581
4,AATTTGAA,0.247
5,TCTCGAGA,0.108
6,AGATCAAT,0.0727
7,AGGTCTAT,-0.0267
8,GCTTATAA,0.186
9,ACCGCAGA,-0.164
10,CGTTGACC,-0.224
11,CAGCTGGC,-0.093
12,CCAATGGA,-0.108
13,GAAGCATC,-0.0851
14,AGTCAGAT,0.0409
15,AACCAGCT,-0.0518
16,CTGGAACC,-0.168
17,ACCCCAGG,-0.372
18,CTTAACGC,0.00079
19,AGGCTATG,-0.101
